From patent US20240400691A1 (FBD BIOLOGICS, published 2024)
Blank lines part the entries; values can stand above or below the binder they belong to.

What was measured:
human CD47 [1] = molecular target: T1, human CD47 (human, UniProt Q08722); assay: flow cytometry on CD47 tf CHO-S cells, PE goat anti-human IgG; EC50 from the table under the curves
T1 construct: whole, on cells; also called CD47 tf CHO-S; endogenous CD47 on FaDu and NCI-H460 cells

human PD-L1 [2] = molecular target: T2, human PD-L1 (human, UniProt Q9NZQ7); assay: flow cytometry competition on PD-L1 tf CHO-S cells against a fixed concentration of biotinylated PD1_G4, streptavidin-PE; IC50 from the table under the curves
T2 construct: whole, on cells; For the PD-L1 tf DLD1 cells the species of PD-L1 is not restated; also called PD-L1 tf CHO-S; PD-L1 tf DLD1

human CD47 [3] = molecular target: T1, human CD47; assay: flow cytometry on untransfected DLD1 cells in a 1:1 mixture with PD-L1 tf DLD1 cells; CD47 as the target on DLD1 is inferred from the controls of FIGS. 6A-6E, the filing does not name it [K]
human PD-L1 [4] = molecular target: T2, human PD-L1; assay: flow cytometry on PD-L1 tf DLD1 cells in a 1:1 mixture with DLD1 cells, PE goat anti-human IgG; these cells also bind the anti-CD47 controls (FIGS. 6A-6B), so the CD47 arm may add to the signal [K]
T2 sequence (Q9NZQ7 19-290): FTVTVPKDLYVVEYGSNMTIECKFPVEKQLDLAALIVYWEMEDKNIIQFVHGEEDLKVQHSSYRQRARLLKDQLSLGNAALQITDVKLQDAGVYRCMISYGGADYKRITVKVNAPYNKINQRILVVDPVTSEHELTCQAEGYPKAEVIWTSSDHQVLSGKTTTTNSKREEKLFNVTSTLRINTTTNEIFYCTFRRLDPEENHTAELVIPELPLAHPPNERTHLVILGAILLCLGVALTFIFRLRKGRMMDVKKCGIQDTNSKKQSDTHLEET

human CD47 [5] = molecular target: T1, human CD47; assay: flow cytometry competition on CD47 tf CHO-S cells against a fixed concentration of biotinylated SIRPα_G4, streptavidin-PE; IC50 from the table under the curves
human TGFβ1 = molecular target: T3, human TGFβ1 (human, UniProt P01137 fragment); assay: ELISA, plate coated with 0.5 µg/ml human TGFβ1, HRP secondary antibody, OD450
Chain of human TGFβ1 (P01137 279-390 limits assumed): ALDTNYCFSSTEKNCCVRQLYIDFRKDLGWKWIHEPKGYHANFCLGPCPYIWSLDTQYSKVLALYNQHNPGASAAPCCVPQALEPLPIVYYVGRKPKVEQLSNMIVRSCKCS
T3 construct: also called hTGFβ1

human PD-L1 [6] = molecular target: T2, human PD-L1; assay: flow cytometry on PD-L1 tf CHO-S cells, PE goat anti-human IgG; EC50 from the table under the curves
human PD-L1 [7] = molecular target: T2, human PD-L1; assay: flow cytometry on PD-L1 tf DLD1 cells in a 1:1 mixture with DLD1 cells, PE goat anti-human IgG

EC50 (human CD47 [1]): 0.75 nM | IC50 (human PD-L1 [2]): 0.398 nM | EC50 (read off the curve) (human CD47 [3]): ~3 nM | EC50 (read off the curve) (human PD-L1 [4]): ~1 nM | IC50 (human CD47 [5]): 1.2 nM | binding result (human TGFβ1): no binding (tested: 500 nM) | EC50 (human PD-L1 [6]): 0.28 nM
B1: PS_G1_v5 (Fc fusion)
chain: QVQLVESGGGVVQPGRSLRLSCAASGGPFMSYAMGWFRQAPGKEREFVAAIRWNGISTFYADSVKGRFTISRDNSKNTLYLQMNSLRAEDTAVYYCAAAQTIVTVPENYHFDYWGQGTQVTVSSGSGGSGGSGGSGGSGGSGEEELQVIQPDKSVSVAAGESAILTCTVTSLYPVGPIQWFRGAGPARELIYNQKRQTFPRVTTVSESTKRFNMDFSISISNITPADAGTYYCVKFRKGSPDTEFKSGAGTELSVRAKPS[human IgG1 Fc with changes not shown]
notes: also called HCB301_v5 protein; double-targeting format

binding result (human PD-L1 [7]): no binding (tested: 500 nM) | EC50 (read off the curve) (human TGFβ1): ~0.4 nM
B2: G4_TGFβRII_mt4 (Fc fusion)
chain: [human IgG4 Fc with S228P (EU numbers) not shown]AGGGGSGGGGSGGGGSGGGGSGIPPHVQKSVNNDMIVTDNNGAVKFPQLCKFCDVRFSTCDNQKSCMSNCEITSICEKPQEVCVAVWRKNDENITLETVCHDPKLPYHDFILEDAASPKCIMKEKKKPGETFFMCSCSSEECNDNIIFSEEYNTSNPD
notes: TGFβ trap control protein
